Laboratory results from PubChem BioAssay AID2101 (National Center for Advancing Translational Sciences (NCATS), 2009).
Out of some 330,000 compounds screened, about 300 (0.091%) were called active. Inconclusive results, whose numbers are uncertain, are shown with a selection of clear calls. Calls come from the whole dose curve; as a rule, active = well fitted inhibition curve with a large enough effect; inconclusive = small, poorly fitted or top-dose-only effect, or effect the other way, or another doubt; inactive = no such curve, though single readings can be large or run the other way. No potency is given beside an inconclusive call; the fits are too rough.

Target: Lysosomal acid glucosylceramidase (Homo sapiens) (UniProt P04062)
Experiment: qHTS Assay for Inhibitors and Activators of N370S glucocerebrosidase as a Potential Chaperone Treatment of Gaucher Disease;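 for activity change, negative = inhibition: 0% = full enzyme activity and -100% = no enzyme basal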
Details: N370S GC spleen homogenate, 4MU-glucoside fluorescence; activity change, negative = inhibition: at 59.4 µM (top of the series) unless noted
Potency is the fitted concentration of half-maximal effect.

| Compound | Potency | activity change, negative = inhibition |
| --- | --- | --- |
| O=C(Nc1ccncc1)Nc1cc(Cl)ccc1Cl | inconclusive [inhibitor, single point] |  |
| O=C(c1cccs1)N1CCCC1 |  | inconclusive: 30.2% [activator] |
| CCN(CC)S(=O)(=O)c1ccc(N2CCOCC2)c(NC(=O)C(=O)c2c(-c3ccccc3)cc3ccccn23)c1 | inconclusive [activator, full curve] |  |
| Cc1nnc(SCC(=O)NC2CCCc3c2cnn3-c2ccccc2F)o1 (stereo not drawn) | inconclusive [inhibitor, partial curve, poor fit] |  |
| CSc1ccccc1-c1nnc(-c2ccc(Cl)cc2)o1 | inconclusive [activator, partial curve, poor fit] |  |
| CCNc1ncc2nc(-c3ccccc3)c(=O)n(Cc3ccc(F)cc3)c2n1 | inconclusive [activator, partial curve] |  |
| COc1cc(-c2cc(C(=O)Nc3ccc(S(N)(=O)=O)cc3)c3ccccc3n2)cc(OC)c1OC | inconclusive [inhibitor, partial curve, poor fit] |  |
| CC(C)CN(C#N)c1nc(N2CCOCC2)nc(N2CCOCC2)n1 | inconclusive [activator, partial curve] |  |
| COC(=O)CC1=NN(c2ccc(OC)cc2)C(=O)/C1=C\c1ccc(Cl)cc1 | inconclusive [inhibitor, single point] |  |
| CCN(CC)Cc1c(O)c(Cl)cc2c(C)c(C)c(=O)oc12 | inconclusive [activator, partial curve] |  |
| O=C(NNC(=O)c1sccc1-n1cccc1)Nc1ccccc1 |  | inactive: 2.89% |
| CCN(CC)c1ccc(C(=O)Nc2cccc(F)c2)cc1 | inconclusive [activator, single point] |  |
| CCC1(c2ccccc2)NC(=S)N(c2ccc(C)c(C)c2)N1 (stereo not drawn) | inconclusive [activator, partial curve] |  |
| Cc1ccc(NC(=O)Nc2ncnc3nc[nH]c23)cc1 | inconclusive [activator, partial curve] |  |
| O=S(=O)(c1cccc2cccnc12)n1cnc2ccccc21 | inconclusive [activator, full curve] |  |
| O=C(O)CCCCCN=C1CCc2ccccc2N1 | inconclusive [inhibitor, full curve, poor fit] |  |
| c1ccc2c(c1)Nc1cc3ccccc3cc1S2 |  | inactive: -7.16% |
| C=CCN(C(=O)Nc1ccc(OC)cc1)c1nnc(-c2ccncc2)s1 | inconclusive [inhibitor, single point] |  |
